Source: PMC9911399, “Two distinct binding modes provide the RNA-binding protein RbFox with extraordinary sequence specificity”
Positions count from the first letter of the chain named. The list shows a part of the results.

T1: RBFOX1 RRM RbFoxmut (Fox-RRM*) (Homo sapiens, UniProt Q9NWB1 109-208, R118D;E147R;N151S;E152T)
T1 sequence: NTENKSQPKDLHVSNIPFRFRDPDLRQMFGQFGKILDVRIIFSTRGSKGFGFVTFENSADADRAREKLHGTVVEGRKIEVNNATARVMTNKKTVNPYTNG

B1: AUAACAG (DNA:RNA)
RNA: GGGAGACCGGAAUUCAGAUUGUCCAUAACAGUUAAAUCCCGUCGUAGCCACCA
DNA 1: CAATCTGAATTCCGGTCTCCC
DNA 2: TGGTGGCTACGACGGGATT
B2: CUAGUAA (DNA:RNA)
RNA: B1 RNA with A25C, A28G, C29U, G31A
DNA 1: CAATCTGAATTCCGGTCTCCC
DNA 2: TGGTGGCTACGACGGGATT
B3: AUCUUCC (DNA:RNA)
RNA: B1 RNA with A27C, A28U, C29U, A30C, G31C
DNA 1: CAATCTGAATTCCGGTCTCCC
DNA 2: TGGTGGCTACGACGGGATT
B4: UUCGCGA (DNA:RNA)
RNA: B1 RNA with A25U, A27C, A28G, A30G, G31A
DNA 1: CAATCTGAATTCCGGTCTCCC
DNA 2: TGGTGGCTACGACGGGATT
B5: CUACCUU (DNA:RNA)
RNA: B1 RNA with A25C, A28C, A30U, G31U
DNA 1: CAATCTGAATTCCGGTCTCCC
DNA 2: TGGTGGCTACGACGGGATT
B6: AUCCAAG (DNA:RNA)
RNA: B1 RNA with A27C, A28C, C29A
DNA 1: CAATCTGAATTCCGGTCTCCC
DNA 2: TGGTGGCTACGACGGGATT
B7: CGCCCAG (DNA:RNA)
RNA: B1 RNA with A25C, U26G, A27C, A28C
DNA 1: CAATCTGAATTCCGGTCTCCC
DNA 2: TGGTGGCTACGACGGGATT
B8: CCUCGUG (DNA:RNA)
RNA: B1 RNA with A25C, U26C, A27U, A28C, C29G, A30U
DNA 1: CAATCTGAATTCCGGTCTCCC
DNA 2: TGGTGGCTACGACGGGATT
B9: CCAUUAG (DNA:RNA)
RNA: B1 RNA with A25C, U26C, A28U, C29U
DNA 1: CAATCTGAATTCCGGTCTCCC
DNA 2: TGGTGGCTACGACGGGATT
B10: UCGACAA (DNA:RNA)
RNA: B1 RNA with A25U, U26C, A27G, G31A
DNA 1: CAATCTGAATTCCGGTCTCCC
DNA 2: TGGTGGCTACGACGGGATT
B11: UUGCUAG (DNA:RNA)
RNA: B1 RNA with A25U, A27G, A28C, C29U
DNA 1: CAATCTGAATTCCGGTCTCCC
DNA 2: TGGTGGCTACGACGGGATT
B12: GCAGGAC (DNA:RNA)
RNA: B1 RNA with A25G, U26C, A28G, C29G, G31C
DNA 1: CAATCTGAATTCCGGTCTCCC
DNA 2: TGGTGGCTACGACGGGATT
B13: CAACGGU (DNA:RNA)
RNA: B1 RNA with A25C, U26A, A28C, C29G, A30G, G31U
DNA 1: CAATCTGAATTCCGGTCTCCC
DNA 2: TGGTGGCTACGACGGGATT
B14: GCCGGGU (DNA:RNA)
RNA: GGGAGACCGGAAUUCAGAUUGUCCGCCGGGUUUAAAUCCCGUCGUAGCCACCA
DNA 1: CAATCTGAATTCCGGTCTCCC
DNA 2: TGGTGGCTACGACGGGATT
B15: CCAGGAU (DNA:RNA)
RNA: B14 RNA with G25C, C27A, G30A
DNA 1: CAATCTGAATTCCGGTCTCCC
DNA 2: TGGTGGCTACGACGGGATT
B16: UCGGCAC (DNA:RNA)
RNA: B1 RNA with A25U, U26C, A27G, A28G, G31C
DNA 1: CAATCTGAATTCCGGTCTCCC
DNA 2: TGGTGGCTACGACGGGATT
B17: UUGUAAU (DNA:RNA)
RNA: B1 RNA with A25U, A27G, A28U, C29A, G31U
DNA 1: CAATCTGAATTCCGGTCTCCC
DNA 2: TGGTGGCTACGACGGGATT
B18: CAUAGAG (DNA:RNA)
RNA: B1 RNA with A25C, U26A, A27U, C29G
DNA 1: CAATCTGAATTCCGGTCTCCC
DNA 2: TGGTGGCTACGACGGGATT
B19: CCCACGG (DNA:RNA)
RNA: B1 RNA with A25C, U26C, A27C, A30G
DNA 1: CAATCTGAATTCCGGTCTCCC
DNA 2: TGGTGGCTACGACGGGATT
B20: AUUACUG (DNA:RNA)
RNA: B1 RNA with A27U, A30U
DNA 1: CAATCTGAATTCCGGTCTCCC
DNA 2: TGGTGGCTACGACGGGATT

Target: T1, RBFOX1 RRM RbFoxmut (Fox-RRM*)
Assay: EMSA; HiTS-Eq, 1 nM pool, 10 min; buffer printed only for the single-RNA assays: 10 mM Tris pH 7.5, 150 mM NaCl, 3.4 mM EDTA, 0.001% NP-40, 30 C
Conditions: tags: His6 N-terminal (pET28a); label: 5' 32P
Procedure, shortened: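 Purified RbFox RRM (wild type or mutant) was equilibrated for 10 min in 50 µL with 1 nM of a 5′-radiolabelled pool of RNA with 7 randomized nucleotides, its flanks annealed to DNA oligonucleotides, across increasing protein concentrations. Free RNA was separated by 8% native PAGE, excised, reverse-transcribed, PCR-barcoded and sequenced on an Illumina HiSeq 2500. Relative association constants came from read-count changes of each variant against the control reaction, normalised to the cognate motif.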

Row | Binder | binding signal
1 | B1 | 0.0845 KA relative to UGCAUGU
2 | B2 | 0.117 KA relative to UGCAUGU
3 | B3 | 0.0652 KA relative to UGCAUGU
4 | B4 | 0.0665 KA relative to UGCAUGU
5 | B5 | 0.0888 KA relative to UGCAUGU
6 | B6 | 0.128 KA relative to UGCAUGU
7 | B7 | 0.115 KA relative to UGCAUGU
8 | B8 | 0.118 KA relative to UGCAUGU
9 | B9 | 0.124 KA relative to UGCAUGU
10 | B10 | 0.0417 KA relative to UGCAUGU
11 | B11 | 0.177 KA relative to UGCAUGU
12 | B12 | 0.0643 KA relative to UGCAUGU
13 | B13 | 0.0732 KA relative to UGCAUGU
14 | B14 | 0.108 KA relative to UGCAUGU
15 | B15 | 0.0889 KA relative to UGCAUGU
16 | B16 | 0.0822 KA relative to UGCAUGU
17 | B17 | 0.104 KA relative to UGCAUGU
18 | B18 | 0.125 KA relative to UGCAUGU
19 | B19 | 0.0992 KA relative to UGCAUGU
20 | B20 | 0.0992 KA relative to UGCAUGU
